The campaign covered roughly 220,000 compounds. About 16,000 (7.3%) were called active. This list was built around the results that the source calls inconclusive (neither active nor inactive); the mix of calls is not that of the screen. Calls come from the whole dose curve; as a rule, active = well fitted inhibition curve with a large enough effect (not every such curve was filed as active); inconclusive = small, poorly fitted or top-dose-only effect, or another doubt; inactive = no such curve, though single readings can be large or run the other way. Where the call is inconclusive, the potency comes from a doubtful curve fit.
What follows are compounds tested against Aldehyde dehydrogenase 1A1 (Homo sapiens) (UniProt P00352) (assay: qHTS Assay for Inhibitors of Aldehyde Dehydrogenase 1 (ALDH1A1)). Conditions: Purified ALDH1A1, NADH fluorescence, propionaldehyde substrate; series mostly up to 75.3 µM; activity, negative = inhibition: at the top concentration.
Potency is the fitted concentration of half-maximal effect; tags give direction and shape of the fitted curve.
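Throughout, for activity, negative = inhibition: plate controls were no enzyme wells and a reference inhibitor.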

UniProt P00352, sequence (P00352 whole entry, looked up): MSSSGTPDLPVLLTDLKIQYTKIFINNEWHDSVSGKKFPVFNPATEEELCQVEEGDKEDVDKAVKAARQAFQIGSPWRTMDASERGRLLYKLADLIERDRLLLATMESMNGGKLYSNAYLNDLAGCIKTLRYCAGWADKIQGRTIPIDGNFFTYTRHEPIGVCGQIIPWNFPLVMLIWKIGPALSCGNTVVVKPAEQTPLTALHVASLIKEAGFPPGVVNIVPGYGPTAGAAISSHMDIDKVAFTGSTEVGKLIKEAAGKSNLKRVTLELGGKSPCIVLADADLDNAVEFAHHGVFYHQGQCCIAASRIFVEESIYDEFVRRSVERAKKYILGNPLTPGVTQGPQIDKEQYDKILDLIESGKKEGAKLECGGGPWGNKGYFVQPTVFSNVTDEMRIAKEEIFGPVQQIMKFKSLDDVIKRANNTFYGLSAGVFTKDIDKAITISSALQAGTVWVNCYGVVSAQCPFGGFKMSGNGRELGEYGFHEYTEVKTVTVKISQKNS

Potency, inconclusive:
CCN(CC)S(=O)(=O)c1ccc(C(=O)NCCN2C(=O)S/C(=C\c3cccnc3)C2=O)cc1 28.2 µM [inhibitor, partial curve, poor fit], CC(=O)C1=C(O)C(=O)N(c2ccc(C)cc2)C1c1ccccn1 (centres undefined) 31.6 µM [inhibitor, single point], O=c1c2ccccc2nc(SCc2cc(=O)n3ccsc3n2)n1CCCO 39.8 µM [inhibitor, single point], O=C(COc1ccc([N+](=O)[O-])cc1)Nc1ccncc1 17.8 µM [inhibitor, partial curve], CC(C)CCNc1nc2c(cc1C#N)COC(C)(C)C2 31.6 µM [inhibitor, partial curve], O=C(/C=C/Nc1ccc(Br)cc1F)c1ccco1 28.2 µM [inhibitor, single point], C=CCOc1c2ccc(C(=O)NCCc3ccc(C)cc3)cc2nn1C 25.1 µM [inhibitor, partial curve], Cc1cc(C(=O)N/N=C/c2cc([N+](=O)[O-])cc(C)c2O)n[nH]1 23.8 µM [inhibitor, single point], COc1cc2ccccc2cc1C(=O)N1CCN(C)CC1 31.6 µM [inhibitor, partial curve], COC(=O)C1=C(C)OC(N)=C(C#N)C1c1cc2cc(C)ccc2nc1Cl (centres undefined) 39.8 µM [inhibitor, single point], O=C1NC2(C=Cc3c(ccc4ccccc34)O2)Oc2ccccc21 (centres undefined) 31.6 µM [inhibitor, partial curve], CCn1c2ccccc2c2cc(NC(=O)c3cc(OC)cc(OC)c3)ccc21 39.8 µM [inhibitor, single point], CCCS(=O)(=O)N1CCN(Cc2ccc3c(c2)c2ccccc2n3CC)CC1 31.6 µM [inhibitor, single point], Cc1nc(NCCO)c2nc(-c3ccccc3)n(CC3CCN(C)CC3)c2n1 23.8 µM [inhibitor, partial curve], O=c1cc(CSc2nnnn2-c2ccc(O)cc2)nc2sccn12 28.2 µM [inhibitor, single point], CN(C)c1ccc(-c2nc3n(n2)C(c2cccnc2)C2=C(CC(C)(C)CC2=O)N3)cc1 (centres undefined) 15.8 µM [inhibitor, partial curve], Cc1oc(-c2ccc(F)cc2)nc1CN(Cc1ccccn1)CC1CCCO1 (centres undefined) 39.8 µM [inhibitor, single point], Cc1c(NC(=S)NC(=O)c2ccco2)cccc1-c1nc2ncccc2o1 39.8 µM [inhibitor, single point], COc1cc(/C=C2\SC(c3ccc(C)cc3)=NC2=O)cc(OC)c1O 25.1 µM [inhibitor, single point], O=C(C/C=N\O)Nc1ccc(Oc2ccccc2)cc1 37.7 µM [inhibitor, single point], COCCSc1nc2sc3c(c2c(=O)n1-c1ccccc1)CCN(C)C3 15.8 µM [inhibitor, partial curve], O=C(/C=C/c1ccco1)Nc1ccc2nc3n(c(=O)c2c1)CCCC3 28.2 µM [inhibitor, partial curve], CCOCCCn1c(C)nc2c(c1=O)c1nc3ccccc3nc1n2CCC1=CCCCC1 31.6 µM [inhibitor, partial curve], COCCNC(=O)c1cc2c(=O)n(C)c3ccccc3c2n1C 39.8 µM [inhibitor, single point], Cc1cc(C(=O)CSc2ncccn2)c(C)n1Cc1ccco1 39.8 µM [inhibitor, single point], O=c1oc2ccccc2c(Nc2ccccc2)c1[N+](=O)[O-] 12.6 µM [inhibitor, partial curve], Cc1cc(C)n2nc(-c3sccc3-n3cccc3)cc2n1 39.8 µM [inhibitor, single point]

Potency, active:
Cc1noc2c1C(c1ccc(N(C)C)cc1)C1=C(CC(C)(C)CC1=O)N2 (centres undefined) 22.4 µM, O=C(NC(=S)Nn1cnnc1)c1cccc(Br)c1 7.94 µM, O=C(CSc1nnc(Cc2ccccc2)n1Cc1ccco1)NC1CCCC1 22.4 µM, CCn1c(C)cc(/C=C2\NC(=O)N(Cc3ccccc3)C2=O)c1C 8.91 µM, CC(Sc1nc2ccccc2s1)C(=O)NC1CCCc2ccccc21 (centres undefined) 12.6 µM, O=C(/C=C/c1ccc(Cl)cc1Cl)N(Cc1ccccc1)C1CCS(=O)(=O)C1 (centres undefined) 2.24 µM

activity, negative = inhibition, inactive:
NC(=O)c1cccnc1Oc1ccccc1 2.68%, COc1cc2cc(CN(Cc3cccnc3)C(=O)Nc3ccccc3)c(=O)[nH]c2cc1OC 2.92%, O=c1c(Cc2ccc(F)cc2)c(O)ccn1CCc1cnc[nH]1 14.5%, CCC(=O)Nc1ccc(S(=O)(=O)N2CCOCC2)cc1 1.84%, CC(c1ccccc1)N1CCC(CNC(=S)Nc2cccc(Cl)c2)C1 (centres undefined) -11.2%, COc1ccc(NC(=O)N2CC3(CCNCC3)C2)cc1 3.63%, Cc1ccc(NC(=S)Nc2ccc(F)cc2)c(C)c1 3.52%, NC1=NC(=O)/C(=C\c2cccnc2)S1 -5.11%, Cc1cc(Cl)c(OCCCCNC(C)(C)C)c(Br)c1 -9.99%, CCOC(=O)CSc1n[nH]c(NC(=O)NC(C)C)n1 6.15%, Cc1cc(NC(=O)CCSc2nc(-c3ccco3)cc(C(F)(F)F)n2)no1 -1.58%, CC(C)NC(=O)COc1ccc(OCc2ccccc2)cc1 2.16%, Cc1cc(C(=O)CSc2nnc(N)s2)c(C)n1CCc1ccc(Cl)cc1 -7.28%, Cc1cc(C(=O)NNC(=O)c2cccc(S(=O)(=O)N3CCOCC3)c2)c2ccccc2n1 4.23%, C=CCN(c1ccccc1Cl)S(=O)(=O)c1cccc(C(=O)OCC(=O)N(C)C2CCS(=O)(=O)C2)c1 (centres undefined) 4.61%, CCOC(=O)CSCC(NC(=O)OC(C)(C)C)C(=O)OCC (centres undefined) 3.79%
